Reference: a collection of fitness landscapes (doi:10.1016/j.celrep.2020.107928)
In all, about 81,000 sequences were measured (“one-hybrid fitness for binding parS DNA”: median about -0.17, highest 2% from about 0.51 on). This is one part of the list.

B1: Caulobacter ParB omega fusion; a variant is named by its letters at X, in order, B8GW30 (parent)
chain: MESVVVGEPGMSEGRRGLGRGLSALLGEVDAAPAQAPGEQLGGSREAPIEILQRNPDQPRRTFREEDLEDLSNSIREKGVLQPILVRPSPDTAGEYQIVAGERAWRAAQRAGLKTVPIMVRELDDLAVLEIGIIENVQRADLNVLEEALSYKVLMEKFERTQENIAQTIGKSXSHVANXMRLLXLPDEVQSYLVSGELTAXHARAIAAAADPVALAKQIIEGGLSVRETEALARKAPNLSAGKSKGGRPPRVKDTDTQALESDLSSVLGLDVSIDHRGSTGTLTITYATLEQLDDLCNRLTRGI

Variants of: B1
Assay: one-hybrid fitness for binding parS DNA (scaled: cognate 1, non-cognate 0); higher = stronger binding
Conditions: with parS DNA site
In short: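 On M9-minus-histidine containing 0.1 mM IPTG and 5 mM 3-AT, E. coli USO cells with a HIS3 reporter, site 19 bp from the promoter, grew 48 hours at 37°C to select Caulobacter ParB libraries randomised at four specificity codons. Plasmids from before and after were Illumina-sequenced, with three replicate libraries pooled and variants under 10 reads left out. Fitness is the log change in variant-to-wild-type read ratio, rescaled against cognate and non-cognate.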

| Variant | one-hybrid fitness for binding parS DNA |
| --- | --- |
| DWMG | ≤ 0.2 |
| PIMG | ≤ 0.2 |
| RAGV | ≤ 0.2 |
| QYTN | ≤ 0.2 |
| PFDP | ≤ 0.2 |
| DRAT | ≤ 0.2 |
| GIAW | ≤ 0.2 |
| EALF | ≤ 0.2 |
| GQIG | ≤ 0.2 |
| HHWS | ≤ 0.2 |
| QKHI | ≤ 0.2 |
| RQNW | 0.271 |
| WKND | ≤ 0.2 |
| NLAY | ≤ 0.2 |
| LGTL | ≤ 0.2 |
| SPAI | ≤ 0.2 |
| SMPN | ≤ 0.2 |
| MPWI | ≤ 0.2 |
| KVST | ≤ 0.2 |
| GVTR | ≤ 0.2 |
| QLCY | ≤ 0.2 |
| QIPQ | ≤ 0.2 |
| VCWT | ≤ 0.2 |
| HNWR | ≤ 0.2 |
| AIVG | ≤ 0.2 |
| MALE | ≤ 0.2 |

| Variant | one-hybrid fitness for binding parS DNA |
| --- | --- |
| PPEY | ≤ 0.2 |
| SLVN | ≤ 0.2 |
| QEMR | ≤ 0.2 |
| VEVT | ≤ 0.2 |
| NPTK | ≤ 0.2 |
| RNKM | 0.363 |
| PDIS | ≤ 0.2 |
| RWVG | 0.584 |
| YPRL | ≤ 0.2 |
| LNKG | ≤ 0.2 |
| MKIS | ≤ 0.2 |
| SEDT | ≤ 0.2 |
| DVLW | ≤ 0.2 |
| QRKD | ≤ 0.2 |
| VHWV | ≤ 0.2 |
| PMHV | ≤ 0.2 |
| PAYS | ≤ 0.2 |
| DASC | ≤ 0.2 |
| HVRT | ≤ 0.2 |
| LTGE | ≤ 0.2 |
| REGN | ≤ 0.2 |
| YICC | ≤ 0.2 |
| DPNL | ≤ 0.2 |
| KSYN | ≤ 0.2 |
| DNEF | ≤ 0.2 |
| IIHS | ≤ 0.2 |

| Variant | one-hybrid fitness for binding parS DNA |
| --- | --- |
| RWNL | ≤ 0.2 |
| GPVQ | ≤ 0.2 |
| YNHY | ≤ 0.2 |
| LSLV | ≤ 0.2 |
| APAC | ≤ 0.2 |
| VTWS | ≤ 0.2 |
| VSYL | ≤ 0.2 |
| EATR | ≤ 0.2 |
| TQVS | ≤ 0.2 |
| TVLH | ≤ 0.2 |
| NAGR | ≤ 0.2 |
| AESW | ≤ 0.2 |
| PPRI | ≤ 0.2 |
| HVVT | ≤ 0.2 |
| HTGT | ≤ 0.2 |
| MELC | ≤ 0.2 |
| KKST | ≤ 0.2 |
| KIIR | ≤ 0.2 |
| SAIE | ≤ 0.2 |
| PAIP | ≤ 0.2 |
| PIHW | ≤ 0.2 |
| RKPV | ≤ 0.2 |
| CETT | ≤ 0.2 |
| LYIR | ≤ 0.2 |
| WNRS | ≤ 0.2 |
| NPMV | ≤ 0.2 |

| Variant | one-hybrid fitness for binding parS DNA |
| --- | --- |
| QQAS | ≤ 0.2 |
| AGYW | ≤ 0.2 |
| RGLV | ≤ 0.2 |
| SNDL | ≤ 0.2 |
| TSTN | ≤ 0.2 |
| VANP | ≤ 0.2 |
| QTKH | ≤ 0.2 |
| AVSI | ≤ 0.2 |
| LLLF | ≤ 0.2 |
| FFPC | ≤ 0.2 |
| LYPY | ≤ 0.2 |
| HECR | ≤ 0.2 |
| ALRF | ≤ 0.2 |
| RKAC | 0.878 |
| LLQH | ≤ 0.2 |
| GYIT | ≤ 0.2 |
| LATC | ≤ 0.2 |
| IEHV | ≤ 0.2 |
| QDMR | ≤ 0.2 |
| HTNL | ≤ 0.2 |
| KRVE | ≤ 0.2 |
| PTIL | ≤ 0.2 |
| PYNT | ≤ 0.2 |
| EGCR | ≤ 0.2 |
| VLVK | ≤ 0.2 |
| KGVG | ≤ 0.2 |

| Variant | one-hybrid fitness for binding parS DNA |
| --- | --- |
| HQNR | ≤ 0.2 |
| INAV | ≤ 0.2 |
| SRAK | ≤ 0.2 |
| CEWR | ≤ 0.2 |
| ASLL | ≤ 0.2 |
| RRQL | ≤ 0.2 |
| VWYG | ≤ 0.2 |
| YSAK | ≤ 0.2 |
| AIQS | ≤ 0.2 |
| KFMF | ≤ 0.2 |
| CKRY | ≤ 0.2 |
| MEVA | ≤ 0.2 |
| PRTV | ≤ 0.2 |
| LNTY | ≤ 0.2 |
| SLQT | ≤ 0.2 |
| KNTD | ≤ 0.2 |
| IVKY | ≤ 0.2 |
| GRAP | ≤ 0.2 |
| AGAV | ≤ 0.2 |
| VYWR | ≤ 0.2 |
| RQTT | 0.929 |
| ANNV | ≤ 0.2 |
| VERG | ≤ 0.2 |
| QNVE | ≤ 0.2 |
| VQLG | ≤ 0.2 |
| LQTC | ≤ 0.2 |

| Variant | one-hybrid fitness for binding parS DNA |
| --- | --- |
| VKNE | ≤ 0.2 |
| NADF | ≤ 0.2 |
| AFPG | ≤ 0.2 |
| GDDG | ≤ 0.2 |
| LERR | ≤ 0.2 |
| THGS | ≤ 0.2 |
| PFNG | ≤ 0.2 |
| IRNT | ≤ 0.2 |
| PFRF | ≤ 0.2 |
| RQHM | 0.325 |
| TSVD | ≤ 0.2 |
| YHAT | ≤ 0.2 |
| PQRV | ≤ 0.2 |
| SQPV | ≤ 0.2 |
| QQYN | ≤ 0.2 |
| HTAP | ≤ 0.2 |
| RIGC | 0.955 |
| TDLG | ≤ 0.2 |
| LMYT | ≤ 0.2 |
| YHLP | ≤ 0.2 |
| VKHI | ≤ 0.2 |
| TAKM | ≤ 0.2 |
| VHVA | ≤ 0.2 |
